Target: ubiquitin (UniProt P0CG48 partial chain)
Assay: cryo-EM structure

binding result: binds
B1: Rpt5 (enzyme)
chain: not shown

From doi:10.1101/419051 (bioRxiv, 2018)
